Data taken from PubChem BioAssay AID686979 (National Center for Advancing Translational Sciences (NCATS), 2013).
“And” between values parts separate entries of the source, which are not always exact repeats. Equal values may be shown once. Among all 420,000 compounds or so, about 50,000 (12%) were called active. The shares of active, inactive and inconclusive entries below differ from those in the screen. The call rests on the fitted dose curve; in most records, active means well fitted inhibition curve with a large enough effect; inconclusive means small, poorly fitted or top-dose-only effect; inactive means flat fitted curve, though single readings scatter. Where the call is inconclusive, the potency comes from a doubtful curve fit.

test: qHTS for Inhibitors of human tyrosyl-DNA phosphodiesterase 1 (TDP1): qHTS in cells in presence of CPT; settings: chicken DT40 Tdp1-/-;hTDP1 cells + 20 nM CPT, ATP luminescence, 48 h; activity change, negative = growth inhibition: at 46.2 µM (top of the series); further: nearly all actives have a fitted effect of over 55% in size
How it was run: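 Chicken DT40 Tdp1-/- cells stably complemented with human TDP1 were seeded at 400 cells/well in medium containing 20 nM camptothecin, exposed to pin-transferred compounds, and grown at 37 °C for at least 48 hr. Viability was read as ATP luminescence.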
On the % scale 0 is the no-effect control and ±100 the full control effect; potency means the concentration at half of the fitted maximal effect; tags describe the fitted curve by direction and shape.

SMILES	Potency	activity change, negative = growth inhibition
CC(=O)Cc1nsc(NC(=O)c2ccc(COc3cccc(C)c3)o2)n1	inconclusive: 29.1 µM [inhibitor, single point]	–
COc1ccc(C/C(N)=N/n2cnnc2)cc1	–	inactive: -2.5%
COC(=O)c1ccc(CSc2c(C(C)C)cnc3c2c(=O)n(C)c(=O)n3C)cc1	inconclusive: 29.1 µM [inhibitor, single point]	–
CCn1cc(CN2CCCC(C(=O)Nc3ccc(-c4cscn4)cc3)C2)c(C)n1 (stereo not drawn)	–	inactive: -25.7%
CCOc1ccc(NC(=O)CCc2c(C)nc3cc(-c4ccccc4OC)nn3c2C)cc1	inconclusive: 7.31 µM [inhibitor, partial curve]	–
O=C(NCCc1ccco1)C(=O)NCCC1CCCCN1S(=O)(=O)c1ccccc1 (stereo not drawn)	inconclusive: 29.1 µM [inhibitor, single point]	–
CC1(C)Cc2ccccc2-c2n[nH]c(=S)n21	inconclusive: 18.4 µM [inhibitor, single point]	–
O=c1c2ccccc2nnn1CSc1nnnn1-c1ccccc1	–	inactive: -19.1%
CCC(C)NC(=O)COc1ccc(S(=O)(=O)N2CCOCC2)cc1 (stereo not drawn)	–	inactive: -0.948%
N#CC1=C(N)Oc2c(ccc3ccccc23)C1c1ccsc1 (stereo not drawn)	active: 0.82 µM	–
Cc1ccc(NC(=O)c2sc3ncnc(N(C)C4CCCCC4)c3c2C)c(C)c1	inconclusive: 23.1 µM [inhibitor, single point]	–
O=C(c1ccc(CS(=O)(=O)c2ccc(Br)cc2)o1)N1CCN(c2ccc(F)cc2)CC1	inconclusive: 8.2 µM [inhibitor, partial curve] and inconclusive: 29.1 µM [inhibitor, single point]	–
c1cnc2ccc(-c3ccc4ncccc4c3)cc2c1	inconclusive: 16.4 µM [inhibitor, single point]	–
COc1ccc(Cl)cc1NC(=O)CC1S/C(=N/N=C2CCCCCC2)NC1=O (stereo not drawn)	inconclusive: 29.1 µM [inhibitor, single point]	–
Cc1c(NC(=O)Nc2ccc(Cl)c(Cl)c2)sc2nc3n(c(=O)c12)CCC(C)CC3 (stereo not drawn)	active: 5.17 µM	–
Cn1nc(C(C)(C)C)cc1C(=O)NCc1cc(F)cc2c1OCOC2	active: 9.2 µM	–
CCOC(=O)N1CCN(Cc2ccc(F)cc2F)CC1	–	inactive: -4.21%
CCCC(=O)N1CCN(c2ccc(NC(=O)c3ccc4c(c3)OCCO4)cc2)CC1	–	inactive: -27.5%
O=C(CNc1cccc([N+](=O)[O-])c1)N1CCN(S(=O)(=O)c2ccc(Cl)cc2)CC1	inconclusive: 16.4 µM [inhibitor, single point]	–
CCCc1nc2ccccc2c(=O)n1NC(=O)c1c(O)c2ccccc2[nH]c1=O	inconclusive: 29.1 µM [inhibitor, single point]	–
COc1ccc(NC(=O)c2cnn(-c3ccc(C)c(C)c3)c2C2CCNCC2)cc1OC	inconclusive: 29.1 µM [inhibitor, single point]	–
N#Cc1cccc(NC(=O)CN2NS(=O)(=O)c3ccccc3C2=O)c1	–	inactive: -4.91%

SMILES	Potency	activity change, negative = growth inhibition
CN(C)CCNC(C(=O)Nc1cc(Cl)cc(Cl)c1)c1ccccc1 (stereo not drawn)	inconclusive: 20.6 µM [inhibitor, single point]	–
O=C(Nc1nc2n(n1)C(c1ccc(F)cc1)C=C(c1ccc(Cl)cc1)N2)c1ccc([N+](=O)[O-])cc1 (stereo not drawn)	active: 5.8 µM	–
Cn1c(/N=C(\N)c2ccccc2)nc2ccccc21	inconclusive: 29.1 µM [inhibitor, single point]	–
O=C(CSc1nnc(-c2ccco2)o1)c1ccc(O)cc1O	inconclusive: 29.1 µM [inhibitor, single point]	–
CCN(CC)CCN(C(=O)c1ccc(S(=O)(=O)N2CCCC2)cc1)c1nc2cc(C)cc(C)c2s1	inconclusive: 25.9 µM [inhibitor, single point]	–
CCOC(=O)CSc1nc2ccccc2c(=O)n1CC1CCC(C(=O)NCc2ccco2)CC1 (stereo not drawn)	inconclusive: 23.1 µM [inhibitor, single point]	–
CCN(c1ccccc1)S(=O)(=O)c1ccc(OC)c(NC(=O)C2=NN(c3ccccc3)C(=O)CC2)c1	–	inactive: -17.6%
O=C(Nc1ccc(N2C(=O)C3C4C=CC(C4)C3C2=O)cc1)Nc1nncs1 (stereo not drawn)	–	inconclusive: -30.2% [inhibitor]
O=c1cnn(Cc2c(Cl)cccc2Cl)c2ccccc12	inconclusive: 10.3 µM [inhibitor, partial curve, poor fit]	–
CCOC(=O)C1(C)CCN1C(=O)c1cc(OC)ccc1Br (stereo not drawn)	inconclusive: 25.9 µM [inhibitor, single point]	–
CN(CC(=O)Nc1cccc(F)c1)C(=O)Cc1n[nH]c(=O)c2ccccc12	inconclusive: 20.6 µM [inhibitor, single point]	–
Ic1ccc(Nc2nc(NCCN3CCOCC3)nc(N3CCCC3)n2)cc1	active: 11.2 µM	–
O=C(c1ccc(COc2ccc3ccccc3c2)o1)N1N=C(C(F)F)CC1(O)C(F)F (stereo not drawn)	inconclusive: 29.1 µM [inhibitor, single point]	–
CN1CCc2cc3c(cc2[C@@H]1[C@@H]1C(=O)Oc2c1ccc1c2OCO1)OCO3	–	inactive: -4.01%
O=C1[C@@H]2C(c3cccnc3)=NO[C@@H]2C(=O)N1c1ccc(Cl)cc1Cl	inconclusive: 29.1 µM [inhibitor, single point]	–
COc1cc2c(cc1OC)C(Cc1cc(OC)c(OC)cc1[N+](=O)[O-])=NCC2	active: 5.17 µM	–
O=C(NCc1ccccn1)C(=O)NCC(c1ccco1)N1CCN(c2ccc(F)cc2)CC1 (stereo not drawn)	inconclusive: 16.4 µM [inhibitor, single point]	–
Cc1cccc(C2=Nc3ccccc3N=C(c3cc(Cl)ccc3O)C2)c1	inconclusive: 7.31 µM [inhibitor, partial curve, poor fit]	–
OCC1CCN(Cc2cn(Cc3ccccc3)nc2-c2cc3ccccc3o2)CC1	inconclusive: 23.1 µM [inhibitor, single point]	–
O=C(CSc1nc2ccccc2c(=O)[nH]1)N1CCN(S(=O)(=O)c2ccccc2)CC1	inconclusive: 6.51 µM [inhibitor, full curve]	–
O=C(CNC(=S)N(CCCN1CCOCC1)Cc1cccs1)N1CCCCCC1	–	inactive: -7.49%
